Measurements as given in the supplement of paper PMC11283458.
Some of the results follow. Single values are uncertain, as repeats are few or missing.

tested on: Zdhhc20 alternative exon (endogenous); test: delta PSI of alternative exon relative to 0.4% DMSO control (RT-PCR) (percentage points); higher = more exon inclusion; conditions: concentration: not stated (optimised per compound); Neuro-2a
Experimental: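 Reads PSI of the Mef2d reporter microexon and of endogenous mouse neural alternative exons. dPSI is relative to the 0.4% DMSO control, single replicate.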
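Further: exons read include endogenous Mef2d, Mast2, Ergic3 and Trappc9 microexons plus the longer neural-regulated Zdhhc20, Mgrn1 and Asph cassette exons, alongside the reporter microexon.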

Row | SMILES | delta PSI of alternative exon
1 | O=C1NC(=O)C(=CC=Cc2ccccc2)C(=O)N1 | -2.22
2 | Cc1n[nH]c2ccc(-c3cncc(OC[C@@H](N)Cc4c[nH]c5ccccc45)c3)cc12 | 32
3 | CC(=O)OC(C)(C)C=CC(=O)[C@](C)(O)[C@H]1[C@H](O)C[C@@]2(C)[C@@H]3CC=C4[C@@H](CC[C@H](O)C4(C)C)[C@]3(CO)C(=O)C[C@]12C | 19.3
4 | COc1ccc(/C=C/C=C2C(=O)NC(=O)NC2=O)cc1 | 0.156
